Laboratory results as given in the BET-seq Pho4 binding data (Le et al. 2018).
The list shows a part of the results. These are noisy estimates, calculated here from bound and input reads.

Each sequence was assayed against T1, Pho4 (S. cerevisiae) (UniProt P07270) (assay: relative binding free energy (BET-seq); higher = weaker binding). Details: reference: library average.
T1 sequence: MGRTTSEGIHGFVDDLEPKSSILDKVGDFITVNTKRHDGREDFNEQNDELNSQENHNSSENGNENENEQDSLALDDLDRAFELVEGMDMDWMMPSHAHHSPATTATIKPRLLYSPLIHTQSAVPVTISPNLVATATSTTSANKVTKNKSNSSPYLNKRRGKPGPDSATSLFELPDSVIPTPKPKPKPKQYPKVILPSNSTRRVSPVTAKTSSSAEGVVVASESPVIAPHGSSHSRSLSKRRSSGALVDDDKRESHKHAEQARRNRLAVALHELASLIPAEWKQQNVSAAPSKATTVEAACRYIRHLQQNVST

| Sequence | relative binding free energy [kcal/mol] |
| --- | --- |
| ATAAGCACGTGGATGC | 0 |
| CGGTTCACGTGTTAGA | 0.24 |
| TAGAGCACGTGTTTTG | -0.1 |
| CCTGGCACGTGAGTGT | 0.09 |
| GGGTGCACGTGACGGC | 0.17 |
| TCGATCACGTGGGTCG | 0.12 |
| GGTTTCACGTGGGCGA | 0.36 |
| ATGTTCACGTGTGGTG | 0.29 |
| TTAGTCACGTGGGGCA | -0.1 |
| GGGGACACGTGTAATG | 0.12 |
| TTTCACACGTGGTTCT | 0.05 |
| TAATACACGTGAGGGT | 0.33 |
| GTGCGCACGTGATTGA | 0.21 |
| GTTGTCACGTGTCGCT | 0.12 |
| TTTTTCACGTGTTTTG | 0.33 |
| GAACGCACGTGGTAGT | 0.05 |
| AGTGTCACGTGGCTCG | -0.06 |
| GATGTCACGTGGGCCG | 0.01 |
| AGGTGCACGTGACGTG | 0.06 |
| AGAAGCACGTGTTGTT | -0.05 |
| AAACTCACGTGGGGTT | 0 |
| TATGGCACGTGGTGTG | -0.17 |
| AGTGTCACGTGAGGAA | 0.15 |

| Sequence | relative binding free energy [kcal/mol] |
| --- | --- |
| GTGCGCACGTGCGGTA | -0.16 |
| TTTCGCACGTGATTAT | 0.14 |
| CGGATCACGTGCGGGG | 0.08 |
| GTTTTCACGTGCTGAA | 0.18 |
| TTGTCCACGTGGCGTG | -0.02 |
| TTTCTCACGTGGGCTA | 0.16 |
| TATCACACGTGGGGTT | -0.03 |
| GGGTTCACGTGCATGT | 0.22 |
| GGAGACACGTGGGATG | -0.06 |
| GGCTTCACGTGAGGGA | 0.27 |
| AGCGTCACGTGGGGGC | -0.13 |
| AAGTGCACGTGCGGAT | -0.02 |
| AGGTACACGTGTATAT | -0.04 |
| GAGTACACGTGTGTGA | 0.09 |
| GGGAACACGTGTAAAG | 0.23 |
| TAAAACACGTGATGGT | 0.18 |
| TAATGCACGTGGTTTG | -0.01 |
| TCGGGCACGTGATTAT | 0.03 |
| TGCTTCACGTGAGTGT | 0.31 |
| ACTTGCACGTGGGGAA | -0.19 |
| CAAGGCACGTGTTATG | -0.1 |
| CGAATCACGTGAGTTT | 0.42 |
| TGTTACACGTGGGCCG | -0.04 |

| Sequence | relative binding free energy [kcal/mol] |
| --- | --- |
| TAGCTCACGTGGATGG | 0.2 |
| GTAATCACGTGGGGAA | 0.08 |
| TATTACACGTGGTTGA | 0 |
| AGTAACACGTGTGATA | 0.14 |
| CGTCGCACGTGAGAGG | 0.24 |
| TGTTGCACGTGTTGCT | 0 |
| TCGTGCACGTGGGGTT | -0.16 |
| GATGGCACGTGCGGTT | -0.06 |
| AAGTGCACGTGGTTAA | -0.3 |
| AGGTTCACGTGGTCTC | 0.23 |
| GTTGACACGTGGTCGG | -0.1 |
| GAGTTCACGTGCAGGC | 0.5 |
| GATGGCACGTGGCCTG | -0.08 |
| TCATACACGTGGGGTA | -0.08 |
| TTAGTCACGTGTCGTG | 0.02 |
| GTGCGCACGTGTTTCG | 0.02 |
| TATTGCACGTGGTACT | -0.17 |
| CATGGCACGTGGAAGG | 0.01 |
| CAGGTCACGTGGTCTG | -0.09 |
| TTGTTCACGTGGTTAG | 0.19 |
| GTGTCCACGTGGCAGG | -0.07 |
| TTCGGCACGTGCTAGG | -0.09 |
| AGTTGCACGTGCCTGG | -0.17 |

| Sequence | relative binding free energy [kcal/mol] |
| --- | --- |
| TGGTCCACGTGTCGGT | -0.14 |
| GAGTTCACGTGATGCG | 0.27 |
| GTGGTCACGTGGGCGT | 0.02 |
| CGTTGCACGTGTCTTT | -0.02 |
| AGGGGCACGTGCTTGA | -0.18 |
| CAGAGCACGTGGGGTA | -0.2 |
| GGTCTCACGTGTCAGG | 0.2 |
| ATTCTCACGTGTGCGT | 0.25 |
| ATGGGCACGTGCTTTG | -0.21 |
| TTATACACGTGTATAA | 0.07 |
| TTTCTCACGTGAGGGG | 0.21 |
| TGTGGCACGTGGGAAA | -0.07 |
| GGTAACACGTGAAAGT | 0.33 |
| AGTGACACGTGTTTTT | 0.01 |
| AGTGGCACGTGACTTG | -0.06 |
| GTAGCCACGTGTGTGA | -0.08 |
| TGAGACACGTGGAATG | 0.07 |
| ACAGTCACGTGGTGTA | -0.18 |
| ATGTGCACGTGGAGCA | -0.11 |
| CTGAACACGTGTTTGT | 0 |
| TAGCTCACGTGTTTTG | 0.07 |
| GGGTTCACGTGCATAT | 0.11 |
| TTGTCCACGTGTTTTT | 0.02 |

| Sequence | relative binding free energy [kcal/mol] |
| --- | --- |
| TGTAGCACGTGTCTAG | -0.03 |
| TATGGCACGTGTGCCG | -0.14 |
| TGGGTCACGTGTATAG | 0.18 |
| ACATGCACGTGGTATT | -0.08 |
| GTGAGCACGTGGTGTT | -0.21 |
| TCTTTCACGTGAAGTT | 0.31 |
| AGGGTCACGTGGTTTG | 0.18 |
| GTTATCACGTGTTGGA | 0.24 |
| CTTTTCACGTGTTTGA | 0.19 |
| GATTTCACGTGTACGT | 0.31 |
| CCGGGCACGTGCTGGG | -0.26 |
| GGCCGCACGTGGGTTG | -0.2 |
| GAGTTCACGTGTCGAT | 0.39 |
| GGGTACACGTGGCTTT | -0.07 |
| GGGCGCACGTGTGGGC | 0.07 |
| GATTACACGTGTTAGG | 0.04 |
| CGTTGCACGTGACGGG | 0.1 |
| GTTTCCACGTGCGTGT | 0 |
| AAATTCACGTGATGAG | 0.39 |
| CTCGTCACGTGGAGGG | -0.01 |
| GGCTTCACGTGGGTGC | 0.07 |
| TCTCTCACGTGAGGGT | 0.3 |
| GGAGGCACGTGGAGAA | -0.06 |
